Paper PMC4336329 (PLoS ONE, 2015)
Out of some 310,000 compounds screened, about 14,000 (4.5%) showed an effect of 50% or more. Effects have a minus sign here. Some of the results follow.

The compounds below were run against human ether-à-go-go-related gene (hERG) potassium channel (human, UniProt Q12809) (assay: primary screen, population patch clamp on CHO cells stably expressing hERG).
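Also: peak tail current of the secondary pulse compared with the same well before compound.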

human ether-à-go-go-related gene (hERG) potassium channel, sequence (Q12809 whole entry, looked up): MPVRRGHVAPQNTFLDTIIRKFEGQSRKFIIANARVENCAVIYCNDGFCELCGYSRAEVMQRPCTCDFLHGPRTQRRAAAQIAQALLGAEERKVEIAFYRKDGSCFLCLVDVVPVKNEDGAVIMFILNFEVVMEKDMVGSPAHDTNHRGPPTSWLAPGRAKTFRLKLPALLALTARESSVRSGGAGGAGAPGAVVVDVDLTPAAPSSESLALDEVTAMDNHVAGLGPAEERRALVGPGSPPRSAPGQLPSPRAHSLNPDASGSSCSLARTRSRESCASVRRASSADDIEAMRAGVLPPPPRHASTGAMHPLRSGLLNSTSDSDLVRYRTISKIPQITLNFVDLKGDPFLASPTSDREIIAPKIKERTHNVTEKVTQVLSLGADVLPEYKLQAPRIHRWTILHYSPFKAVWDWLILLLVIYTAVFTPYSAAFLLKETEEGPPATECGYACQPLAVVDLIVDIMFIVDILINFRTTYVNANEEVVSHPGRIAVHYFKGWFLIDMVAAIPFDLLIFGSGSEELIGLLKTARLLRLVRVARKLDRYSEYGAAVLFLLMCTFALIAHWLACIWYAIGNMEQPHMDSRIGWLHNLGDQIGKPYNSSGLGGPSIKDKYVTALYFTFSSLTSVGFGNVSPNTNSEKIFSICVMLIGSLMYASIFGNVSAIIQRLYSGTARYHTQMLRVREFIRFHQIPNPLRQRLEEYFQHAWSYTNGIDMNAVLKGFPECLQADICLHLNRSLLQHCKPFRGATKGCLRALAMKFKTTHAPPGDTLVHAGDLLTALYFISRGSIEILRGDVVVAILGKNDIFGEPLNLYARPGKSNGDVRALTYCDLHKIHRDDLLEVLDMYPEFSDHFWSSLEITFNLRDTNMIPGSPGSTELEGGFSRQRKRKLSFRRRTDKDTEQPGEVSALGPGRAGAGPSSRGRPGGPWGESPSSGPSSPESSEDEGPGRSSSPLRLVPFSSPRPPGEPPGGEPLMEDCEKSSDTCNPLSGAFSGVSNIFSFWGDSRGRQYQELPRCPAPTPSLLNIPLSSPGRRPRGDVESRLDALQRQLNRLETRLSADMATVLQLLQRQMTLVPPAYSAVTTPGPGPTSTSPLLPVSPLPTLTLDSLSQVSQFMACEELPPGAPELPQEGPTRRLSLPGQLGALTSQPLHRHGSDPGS

Row | Compound | hERG current change (%, negative = inhibition) at 10uM
1 | COc1ccc(/C=C/C(=O)OCc2cccc([N+](=O)[O-])c2)cc1 | -9.66%
2 | Cc1cc(SCc2ccc(C(F)(F)F)cc2)nc(=O)[nH]1 | 15%
3 | CCCCOc1ccc(C(=O)NCCCC(=O)N2CCCCC2)cc1 | -11.4%
4 | C=CCSC1=C(C#N)C(c2ccccc2OCC)C(C#N)C(=O)N1 (stereo not shown) | -0.452%
5 | Cc1ccc(-n2c(SCC(=O)NC3CCCCC3)nc3c(c2=O)SCC3)cc1 | 5.27%
6 | COC(=O)C1=C(C)N(CC2CC2)C(=NCc2cccc(Cl)c2)N[C@H]1c1ccccc1 | -72.3%
7 | Cc1ccc(S(=O)(=O)Nc2ccccc2F)cc1C(=O)NCCCN1CCCC1=O | -9.23%
8 | O=[N+]([O-])c1ccc(CNCc2cc(Cl)ccc2O)cc1 | -25.9%
9 | COc1ccc(C(C(=O)NCc2ccc(F)cc2)N(C(=O)c2csnn2)C2CC2)cc1 (stereo not shown) | -23.7%
10 | COc1ccc(C(=O)c2ccc(Cl)cc2Cl)cc1 | 9.42%
11 | Cn1c(=O)n(CC(=O)Nc2ccccc2)c2ccccc21 | 3.1%
12 | CCNC(=O)C(=O)Nc1ccc([N+](=O)[O-])cc1 | 2.37%
13 | C=CCn1c(SCC(=O)NC2CC2)nc2sc(CC)cc2c1=O | -54.6%
14 | Cc1cc(NCC2CCCO2)n2c(nc3ccccc32)c1C#N (stereo not shown) | -21.2%
15 | NC(=O)c1sc(=S)n2c1[nH]c(=O)c1sccc12 | 12.9%
16 | Cc1cc2n(n1)C(c1cccs1)Nc1ccccc1-2 (stereo not shown) | -44.4%
17 | Cc1onc(-c2c(F)cccc2Cl)c1C(=O)OCc1cnc(Cl)s1 | -3.61%
18 | CN(C)C1(CN=Cc2cc(Cl)cc([N+](=O)[O-])c2O)CCCCC1 | 11.4%
19 | O=C(NCc1cccs1)C1CCC(=O)N1C1CCCCC1 (stereo not shown) | -5.61%
20 | CCOc1ccccc1N1CCN(C(=O)c2cccs2)CC1 | 9.36%
21 | CCOc1ccc(CCNC(=O)CSCC(=O)Nc2cccc(C)c2)cc1OCC | -8.35%
22 | Cc1cccc(N2CCN(C(=O)C3CCN(S(=O)(=O)c4cccc5cccnc45)CC3)CC2C)c1 (stereo not shown) | -8%

Row | Compound | hERG current change (%, negative = inhibition) at 10uM
23 | COc1ccc(C2=C(C[NH+](C)C)C(c3ccccc3)c3ccccc3O2)cc1.[Cl-] (stereo not shown) | -7.29%
24 | CCc1ccccc1NC(=O)CSc1nnc([C@@H](N)Cc2c[nH]c3ccccc23)o1.Cl | -13.9%
25 | Cc1cc(C)cc(NC(=O)CCN2CC(C)OC(C)C2)c1 (stereo not shown) | -1.23%
26 | CC(=O)N1CCc2c(sc(NC(=O)C3CCN(S(=O)(=O)c4cccs4)CC3)c2C(N)=O)C1 | -29.4%
27 | CC1=C(C(=O)Nc2ccc(Cl)cc2)C2(CCCCC2)C(C(N)=O)C(=S)N1 (stereo not shown) | -12.1%
28 | CCCCn1c(SCC(=O)NCc2ccco2)nnc1-c1ccco1 | -19.9%
29 | Cc1cc(N/N=C/c2ccccc2[N+](=O)[O-])nc(-n2nc(C)cc2C)n1 | -2.42%
30 | Cc1ccc2oc3c(c(=O)c2c1)C(c1cccs1)N(CCCN(C)C)C3=O (stereo not shown) | -8.09%
31 | CSCc1cc(N(C)C)nc(SCc2ccc(Cl)c(Cl)c2)n1 | -3.51%
32 | CCOC(Cn1c(-c2ccc(OC)cc2)nc2ccccc21)OCC | -13.2%
33 | CC(=O)N[C@@H](Cc1ccc(O)cc1)CN1C(N)=NC[C@@H]1CC(C)C | 5.45%
34 | COCCn1c(C)cc(C(=O)CSc2ncn[nH]2)c1C | 10.2%
35 | COCc1cc(C)nc(Nc2ccc(C)c(C)c2)c1C#N | -5.71%
36 | Cc1c(C(=O)c2cccc([N+](=O)[O-])c2)c2ccccn2c1CCC#N | -12.2%
37 | C=CCc1ccccc1OCCOc1ccc([N+](=O)[O-])cc1/C=N/NC(N)=O | 38.8%
38 | COc1ccc2oc(=O)c(C(=O)Oc3ccc(NC(C)=O)cc3)cc2c1 | -10.4%
39 | N=Nc1c(O)n(CC(=O)Nc2ccccc2)c2ccccc12 | 2.87%
40 | Cc1ccc(-n2c(SCC(=O)Nc3ccc4c(c3)OCO4)nnc2-c2ccoc2C)cc1 | -42.2%
41 | C=CCN(CC=C)S(=O)(=O)c1ccc(NC(=S)NC(=O)Cc2ccc(OC)cc2)cc1 | 14.7%
42 | COc1ccccc1NC(=O)CCNS(=O)(=O)c1ccc2c(c1)CCN2C(C)=O | -11.5%
43 | CCc1nc2ccccc2c(C(=O)Nc2cccc(C)c2)c1C | 23.3%
44 | CCN1C(=O)/C(=C\N2CCN(c3ccccc3)CC2)SC1=S | 5.21%

Row | Compound | hERG current change (%, negative = inhibition) at 10uM
45 | COc1cc(/C(C)=N/NC(=O)c2cccc(S(=O)(=O)N3CCCC3)c2)cc(OC)c1OC | 12.2%
46 | CN(CCc1ccccn1)C(=O)CCNC(=O)Cn1cnc2ccccc2c1=O | 19.7%
47 | CCC(=NCc1ccc2c(c1)OCO2)c1c(O)n(C2CCCCC2)c(=O)[nH]c1=O | -3.04%
48 | COc1ccccc1/C=N/NC(=O)c1ccccc1NS(=O)(=O)c1ccc(C)cc1 | 9.08%
49 | O=C(NC1CCCC1)C(c1ccc(Cl)cc1)N(C(=O)c1csnn1)C1CC1 (stereo not shown) | -3.03%
50 | Cc1cc(C)cc(NC(=O)c2ccc(NC3=NC4CS(=O)(=O)CC4S3)cc2)c1 (stereo not shown) | -0.378%
51 | COc1ccc(C(=O)Nc2ccccc2C(=O)NCc2cccnc2)cc1 | -3.89%
52 | CCCC1C(=O)N2C(N(C)C)=Nc3ccc(C)cc3N2C1=O (stereo not shown) | 15.6%
53 | Cc1nn(CC2CC2)c(=O)n1-c1cccc(Cl)c1 | 15.7%
54 | COc1ccc(NC(=O)c2cc([N+](=O)[O-])nn2Cc2ccccc2)c(C)c1 | -3.25%
55 | O=S(=O)(NCc1ccc(C(F)(F)F)cc1)c1ccc(-n2cnnn2)cc1 | -22.2%
56 | CCOc1ccccc1Nc1nc(-c2sc(NC(=O)c3ccc([N+](=O)[O-])cc3)nc2C)cs1 | -10.3%
57 | CCc1ccccc1N(CC(=O)N1CCCCC1)S(=O)(=O)c1ccccc1 | 10.6%
58 | O=C(c1ccc(F)c(S(=O)(=O)N2CCOCC2)c1)N1CCN(c2ncccn2)CC1 | -4.06%
59 | COc1ccc(C(=O)CNc2ccccc2CO)cc1 | 22.8%
60 | O=C(c1cc(-c2ccccc2)on1)N1CCCCCC1 | 6.65%
61 | O=C(NCCc1ccccc1)c1ccc2nc3cc(Cl)ccc3c(=O)n2c1 | 14.1%
62 | O=C(N/N=C/c1ccc([N+](=O)[O-])o1)c1cn2ccc3ccccc3c2n1 | -7.47%
63 | C=CCc1ccccc1OCC(O)CNC(C)C.Cl (stereo not shown) | -33.3%
64 | Cn1c(SCC(=O)NCC2CCCO2)ncc(C(=O)Nc2ccc(F)cc2)c1=O (stereo not shown) | -13.5%
65 | Cc1ccc(NC2CCCN(C(=O)c3ccoc3)C2)cc1C (stereo not shown) | 13.8%
66 | CCN(Cc1ccncc1)C(=O)c1cccs1 | 2%

Row | Compound | hERG current change (%, negative = inhibition) at 10uM
67 | Cc1noc(C)c1CSc1nnc(-c2ccncc2)n1-c1ccc(Cl)c(Cl)c1 | -12.8%
68 | O=C(CCl)NN1C(=O)NC(c2ccccc2)(c2ccccc2)C1=O | 11.2%
69 | Cc1ccc(SCC(=O)OCC(=O)Nc2ccc3[nH]c(=O)[nH]c3c2)cc1C | 12.5%
70 | COc1cc(NC(=O)Cc2ccc(S(=O)(=O)N3CCOCC3)s2)c(OC)cc1Cl | -13.1%
71 | O=C(CSc1ccccc1F)NCCCN1CCCC1=O | 14.9%
72 | NC(=O)c1nsc(C(=O)N(c2ccccc2)C(C(=O)NCC2CCCO2)c2cccs2)c1N (stereo not shown) | 9.06%
73 | Cc1ccc(C(C)(C)C)cc1S(=O)(=O)N1CCC(C(=O)N2CCN(c3ccc(O)cc3)CC2)CC1 | 2.64%
74 | CCn1nc(C(=O)N2CCc3ccccc3C2)c2ccccc2c1=O | -13.6%
75 | Cc1cccc(C)c1NC(=O)CSc1nnc(-c2ccco2)n1N | -4.1%
76 | O=C(Cn1cnc2cc([N+](=O)[O-])ccc2c1=O)Nc1cccc2ccccc12 | -5.73%
77 | O=C(NCc1ccco1)c1nnc(Cc2ccc(F)cc2)o1 | -4.47%
78 | CCOC(=O)Cc1csc(NC(=O)C(C)(C)C)n1 | 13%
79 | CCN(CC(O)Cn1c2ccccc2c2ccccc21)S(=O)(=O)c1ccc(C)cc1 (stereo not shown) | 15.1%
80 | O/N=C1/CCCSc2ccccc21 | -4.9%
81 | Cc1ccc(S(=O)(=O)N(C)C)cc1NC(=S)N(C)C1CCN(C)CC1 | 16.2%
82 | C=C(C)CN1C(=O)C(O)(CC(=O)c2ccc3c(c2)OCCO3)c2ccccc21 (stereo not shown) | -9.08%
83 | C/C(=N\NC(=O)C(=O)Nc1cc(Cl)ccc1Cl)c1ccncc1 | -4.88%
84 | Cc1ccc(C)c(NC(=O)N2CCCCCC2)c1 | 5.79%
85 | O=C(COC(=O)c1ccc(CO)cc1)NCc1cccs1 | 8.52%
86 | C=CCn1c(SCC(=O)Nc2c(C)cccc2C)nnc1-c1cnccn1 | -2.77%
87 | Cc1cc(=O)oc(C)c1C(=O)n1nc(C)c2c1C[C@@H]1[C@H]2C1(C)C | 0.302%
88 | CCCCCN(C(=O)CCC(=O)OCC(=O)Nc1cccc(CC)c1)c1c(N)n(CCCC)c(=O)[nH]c1=O | 7.86%
